Assay results as given in PubChem BioAssay AID1463 (National Center for Advancing Translational Sciences (NCATS), 2008).
Hit rate of the full screen: of about 280,000 compounds, about 2,600 (0.93%) were called active. About 8% were inconclusive and are not listed. The call rests on the fitted dose curve; in most records, active means well fitted curve in the direction sought with a large enough effect; inconclusive means small, poorly fitted or top-dose-only effect; inactive means flat fitted curve, though single readings scatter. The list shows a part of the results, in another mix than the full data.

Test: Counterscreen qHTS for Inhibitors of Tau Fibril Formation, Fluorescence Polarization; further: nearly all actives have a fitted effect of over 55% in size
Conditions: tau K18 P301L (four-repeat tau fragment) Alexa594 fluorescence, heparin fibrillization; series mostly up to 57.7 µM; activity change, negative = decrease: at the top concentration
From the text: NIH Molecular Libraries Probe Production Network [MLPCN]
NIH Chemical Genomics Center [NCGC]
Assay Provider: Carlo Ballatore, University of Pennsylvania
The microtubule-associated protein tau is an abundant protein in the axons of neurons that stabilizes microtubules. With its ability to modulate microtubule dynamics, tau contributes directly or indirectly, to key structural and regulatory cellular functions. Particularly important is the influence tau exerts on axonal transport, which allows signaling molecules, trophic factors and other essential cellular constituents to travel along the axons. Under pathological conditions, tau becomes sequestered into insoluble aggregates called neurofibrillary tangles. This phenomenon is believed to have pathological consequences by promoting axonal transport deficits that ultimately lead to synaptic dysfunction and neuronal loss. To identify inhibitors of tau aggregation, a heparin-induced tau fibril formation assay was used that employed a recombinantly expressed fragment of tau, K18 (Q242-E372), bearing a P301L mutation (Gustke et al. 1994; Hong et al. 1998). […] Total fluorescence (555 nm excitation and 632 nm emission) was measured to identify fluorescent or absorbent compounds at this wavelength. Such compounds may be artifacts that interfere with the Alexa 594 Tau fluorescence polarization assay.
Gustke, N., B. Trinczek, et al. (1994). "Domains of tau protein and interactions with microtubules." Biochemistry 33(32): 9511-22.
Hong, M., V. Zhukareva, et al. (1998).
Li, W. and V. M. Lee (2006). "Characterization of two VQIXXK motifs for tau fibrillization in vitro." Biochemistry 45(51): 15692-701.
von Bergen, M., S. Barghorn, et al. (2001). "Mutations of tau protein in frontotemporal dementia promote aggregation of paired helical filaments by enhancing local beta-structure." J Biol Chem 276(51): 48165-74.
NCGC Assay Protocol Summary:
For screening, 2 uL/well human K18 P301L (15 uM unlabeled and 0.24 uM Alexa 594-labeled tau final concentrations) in reagent buffer (100 mM sodium acetate pH 7) was dispensed into black solid 1536-well plates (Grenier) using a solenoid-based dispenser. Following transfer of 23 nL compound or DMSO vehicle by a pin tool, 2 uL/well heparin (20 uM final concentration) in reagent buffer was added and the plate centrifuged 15 s at 1000 RPM. Plates were incubated 6 hr at 37 C and then 1 uL/well ThT (30 uM final concentration) was added. After a 1 hr ambient incubation, the plates were read by an Envision (Perkin Elmer) to monitor Alexa 594 FP (555 nm excitation and 632 nm emission).
Keywords: NIH Roadmap, MLPCN, MLI, MLSMR, NCGC, qHTS, tau, tauopathies, Alzheimer's disease, fibril, neurodegeneration, aggregation
On the % scale 0 is the no-effect control and ±100 the full control effect; potency means the concentration at half of the fitted maximal effect; tags describe the fitted curve by direction and shape or compound fluorescence and quenching.

Row | SMILES | activity change, negative = decrease | Potency
1 | C[C@H]1CCC[C@]2(O[C@@H](CCO)C[C@H](O)[C@H]2O)O1 | inactive: -13.5% | 
2 | CN1CCN(CCCN2c3ccccc3Sc3ccc(C(F)(F)F)cc32)CC1 |  | inactive
3 | COC(=O)Nc1nc2ccc(C(=O)c3cccs3)cc2[nH]1 |  | inactive
4 | C=CCCC(=O)Nc1nc(C)c(-c2csc(Nc3ccccc3OC)n2)s1 |  | active: 12.6 µM [quencher]
5 | CC(C)Cn1c(N)c(C(=O)COC(=O)c2cc(-c3ccco3)nc3ccccc23)c(=O)n(C)c1=O | inactive: -24.6% | 
6 | CCN(CC)c1ccc(/C=N/Nc2nc3ccccc3[nH]2)c(O)c1 |  | active: 17.8 µM [quencher]
7 | COc1cccc([C@@H]2Oc3ccc(OC)cc3C(=O)[C@H]2OC(=O)Nc2cc(OC)c(OC)c(OC)c2)c1 | inactive: -22.7% | 
8 | O=C(/C=C/c1ccc2c(c1)OCO2)c1ccc(F)cc1 | inactive: -11% | 
9 | CCCc1c(-c2ccc(O)cc2)nn(-c2ccc(O)cc2)c1-c1ccc(O)cc1 | inactive: -34.5% | 
10 | CCOc1ccc(NC(=O)Cn2cc(C(=O)c3ccco3)c3ccccc32)cc1 | inactive: -28.5% | 
11 | Cc1ccc(NC(=S)N/N=C/c2ccc([N+](=O)[O-])s2)cc1 |  | active: 15.8 µM [quencher]
12 | CC(=O)c1cccc(N=Nc2c(C)[nH]c3ccccc23)c1 |  | active: 14.1 µM [quencher]
13 | COc1ccc(NCc2cc3cc4c(cc3n(CC(=O)Nc3ccc(F)cc3)c2=O)OCCO4)cc1 |  | active: 11.2 µM [quencher]
14 | CC(C)(C)c1ccc(C(=O)NCCC(=O)NCc2ccco2)cc1 |  | active: 14.1 µM [quencher]
15 | CCOC(=O)Cc1csc(NC(=O)/C=C\c2ccccc2Cl)n1 | inactive: -28.6% | 
16 | COc1ccccc1OCCn1cc(/C=N/NC(=O)c2ccncc2)c2ccccc21 |  | active: 12.6 µM [quencher]
17 | CCN1CC2=C(OC(N)=C(C#N)C2c2cccs2)/C(=C/c2cccs2)C1 (stereo not given) | inactive: -25.1% | 
18 | O=[N+]([O-])c1cc(/C=N\Nc2nc(-c3ccccc3)cs2)ccc1O |  | active: 10 µM [quencher]
19 | COc1ccc(-c2[nH]c3ccccc3c2SCCNC(=O)c2ccc(S(=O)(=O)N(C)C)cc2)cc1 |  | active: 3.98 µM [quencher]
20 | CCOc1ccc(NC(=S)N(CCc2c(C)[nH]c3ccccc23)Cc2ccco2)cc1 |  | active: 12.6 µM [quencher]
21 | COc1cccc(-c2cc(=O)c3cc(NC(=O)c4ccc(N(C)C)cc4)ccc3[nH]2)c1 | inactive: -9.36% | 
22 | CCN(CC)c1ccc(NC(=O)Cn2ncc3c(C)n(Cc4ccccc4F)c(C)c3c2=O)c(C)c1 | inactive: -6.43% | 
23 | COc1cc(C2Oc3cc(C4Oc5cc(O)cc(O)c5C(=O)C4O)ccc3OC2CO)ccc1O (stereo not given) |  | inactive

Row | SMILES | activity change, negative = decrease | Potency
24 | CCOc1ccc(NS(=O)(=O)c2ccc3[nH]c4c(c3c2)CCCCC4)cc1 |  | active: 14.1 µM [quencher]
25 | COc1ccc2c(c1)O[C@H](c1ccc3c(c1)OCO3)[C@@H](OC(=O)Nc1cc(OC)c(OC)c(OC)c1)C2=O | inactive: -17.2% | 
26 | CCOC(=O)CN1C(c2ccc(O)cc2)Nc2ccc(Br)cc2C1c1ccccc1 (stereo not given) |  | active: 7.08 µM [quencher]
27 | Nc1nn(-c2ccccc2)nc1C(=O)OCc1ccccc1 | inactive: -29.2% | 
28 | COc1ccc(OC)c(/C=N/N(C)c2ccccc2)c1 |  | active: 11.2 µM [quencher]
29 | O=C(Nc1cccc(Cl)c1)OCCN1CCN(Cc2ccccc2)CCC1=O | inactive: -21.6% | 
30 | CC1(C)CC(=O)c2c(oc3cc(O)c(O)cc23)C1 | inactive: -29.7% | 
31 | O=C(NCc1nc2ccccc2[nH]1)C1=C[C@H](c2csc3ccccc23)C[C@H](OCc2ccc(CO)cc2)O1 | inactive: -27.5% | 
32 | CCOC(=O)CSc1ncnc2c1c(-c1ccccc1)cn2-c1ccc(OC)cc1 | inactive: -20.9% | 
33 | O=C1CC(c2ccccc2)Oc2cc(O)cc(O)c21 (stereo not given) | inactive: -7.91% | 
34 | CCN(CC)C(=S)SSC(=S)N(CC)CC |  | inactive
35 | C[C@@H](C(=O)NCCc1c[nH]c2ccccc12)[C@@H]1C[C@@]1(C)[C@@H](NC(=O)OCc1ccccc1)c1ccccc1 | inactive: 8.66% | 
36 | C[C@]12C[C@H](O)[C@H]3[C@@H](CCC4=CC(=O)CC[C@@]43C)[C@@H]1CC[C@@H]2C(=O)CO | inactive: -4.49% | 
37 | Cc1ccc(NC(=O)c2cccc(N(C)C)c2)cc1NC(=O)c1ccc(O)cc1 | inactive: -9.34% | 
38 | O=C1CSc2ccc(C(=O)Nc3cccc(S(=O)(=O)Nc4ccc(Br)cc4)c3)cc2N1 |  | active: 10 µM [quencher]
39 | CCCCCCN1C=CC=C/C1=C/C=C(C#N)C#N | inactive: 5.62% | 
40 | CC(C)NCC(O)c1ccc(O)c(O)c1 (stereo not given) |  | inactive
41 | C#C[C@]1(O)CC[C@H]2[C@@H]3CCc4cc(O)ccc4[C@H]3CC[C@@]21C | inactive: -15.5% | 
42 | CC(C)CCNC(=O)CCC(=O)NNc1nc2ccccc2c2nc(-c3ccccc3)nn12 | inactive: -20.5% | 
43 | COC(=O)c1c(C)[nH]c(C)c1C(=O)c1ccccc1Cc1ccccc1 |  | inactive
44 | CSc1cccc(NC(=O)Cn2ncn3c(cc4ccccc43)c2=O)c1 |  | active: 20 µM [quencher]
45 | Cn1c(N)c(C(=O)COC(=O)c2cc(C3CC3)nc3ccccc23)c(=O)n(C)c1=O | inactive: -29.2% | 
